# Experimental data reported in the RNAGym collection of RNA variant scans (doi:10.7554/elife.90254).
# Read counts are not given, so values of variants with three or more changes are uncertain.
# B1: LINE1-mini (parent)
# chain: GGCAGAGCUCAACACAGCGUGGCAAAGUGGCUGUGGCUAGACUGCC
# Variants of: B1
# Assay: self-cleavage, relative activity (ratio to wild type); higher = more cleavage; in vitro, sequencing; the parent is a self-cleaving ribozyme
row,Variant,self-cleavage
1,GGCAGAGCUCAACACAGCGUGGCACAGUGGCUGUAGCCAGACUGCC [A25C G35A U38C],0.11
2,GGCAGAGCUCAACACAGCGUGGCACAGUGGCUGUUGCUAGACUGAC [A25C G35U C45A],0.02
3,GGCAGAGCUCAACACAGCGUGGCACAGUGGCUGUUGCGAGACUGCC [A25C G35U U38G],0.01
4,GGCAGAGCUCAACACAGCGUGGCACAGUGGCUGUGGCUAAAAUGCC [A25C G40A C42A],0.34
5,GGCAGAGCUCAACACAGCGUGGCACAGUGGCUGUGGCUAUACUCCC [A25C G40U G44C],0.04
6,GGCAGAGCUCAACACAGCGUGGCACAGUGGCUGUGGCUAGACUUGC [A25C G44U C45G],0.12
7,GGCAGAGCUCAACACAGCGUGGCACAGAGGCUGUGGCUACACUGCG [A25C U28A G40C C46G],0
8,GGCAGAGCUCAACACAGCGUGGCACAGCGGCGGUGGUUAGACUGCC [A25C U28C U32G C37U],0.06
9,GGCAGAGCUCAACACAGCGUGGCACAGUGGCCGAGGCUAGACUGCC [A25C U32C U34A],0.03
10,GGCAGAGCUCAACACAGCGUGGCACAGUGGCUGAGGCUGGACUGCC [A25C U34A A39G],0.03
11,GGCAGAGCUCAACACAGCGUGGCACAGUGGCUGUGGCGAGACUGAC [A25C U38G C45A],0.02
12,GGCAGAGCUCAACACAGCGUGGCACAGUGGCUGUGGCGACACUGCC [A25C U38G G40C],0.01
13,GGCAGAGCUCAACACAGCGUGGCAGCGUGGUUUUGGCUAGACUGCC [A25G A26C C31U G33U],0.02
14,GGCAGAGCUCAACACAGCGUGGCAGCUUGGCUGUGGCUAGACCGCC [A25G A26C G27U U43C],0.1
15,GGCAGAGCUCAACACAGCGUGGCAGCGUGACUGUGGCUAGACUGCC [A25G A26C G30A],1.25
16,GGCAGAGCUCAACACAGCGUGGCAGGGUGGCUGUGCCUAGACUACC [A25G A26G G36C G44A],0.02
17,GGCAGAGCUCAACACAGCGUGGCAGUGUGGCUGUGGAUAGACUGCC [A25G A26U C37A],0.14
18,GGCAGAGCUCAACACAGCGUGGCAGUGUAGCUGUGGCUAGAUUGCC [A25G A26U G29A C42U],0.13
19,GGCAGAGCUCAACACAGCGUGGCAGAGUGGCUGUGGCUUGACUGCU [A25G A39U C46U],1.23

row,Variant,self-cleavage
1,GGCAGAGCUCAACACAGCGUGGCAGAGUGGAUGUGGCUAGAACGCC [A25G C31A C42A U43C],0.23
2,GGCAGAGCUCAACACAGCGUGGCAGAGUGGAUGUGGCUAUAGUGCC [A25G C31A G40U C42G],0.01
3,GGCAGAGCUCAACACAGCGUGGCAGAGUGGGUGUGACUAGACUGCC [A25G C31G G36A],0.08
4,GGCAGAGCUCAACACAGCGUGGCAGAGUGGUUGUGGGUAGACUGCC [A25G C31U C37G],0.06
5,GGCAGAGCUCAACACAGCGUGGCAGAGUGGUUGUCGCUAGACUGCC [A25G C31U G35C],0.03
6,GGCAGAGCUCAACACAGCGUGGCAGAGUGGUUGUGGCUAGACUUAC [A25G C31U G44U C45A],0.02
7,GGCAGAGCUCAACACAGCGUGGCAGAGUGGUUGCGGCUAGACUGCA [A25G C31U U34C C46A],0.03
8,GGCAGAGCUCAACACAGCGUGGCAGAGUGGCUGUGGUUAGUCUGCC [A25G C37U A41U],0.03
9,GGCAGAGCUCAACACAGCGUGGCAGAGUGGCUGUGGUUAGACUGGC [A25G C37U C45G],0.01
10,GGCAGAGCUCAACACAGCGUGGCAGAGUGGCUGUGGCUAGAAAGCC [A25G C42A U43A],0.01
11,GGCAGAGCUCAACACAGCGUGGCAGAGUGGCUGUGGCUAGAGUGUC [A25G C42G C45U],0.06
12,GGCAGAGCUCAACACAGCGUGGCAGAGUGGCUGUGGCUAGAUUGCU [A25G C42U C46U],0.08
13,GGCAGAGCUCAACACAGCGUGGCAGAAUGACAGUGGCUAGACUGCC [A25G G27A G30A U32A],0.06
14,GGCAGAGCUCAACACAGCGUGGCAGAAUGUCUGUGGCUAGACUGCC [A25G G27A G30U],0.83
15,GGCAGAGCUCAACACAGCGUGGCAGAAUGGCUUUGGCUAGACUGCC [A25G G27A G33U],0.04
16,GGCAGAGCUCAACACAGCGUGGCAGACUGGUUGUUGCUCGACUGCC [A25G G27C C31U G35U A39C],0.02
17,GGCAGAGCUCAACACAGCGUGGCAGAUUGCCUGUGGCUUGACUGCC [A25G G27U G30C A39U],0.2
18,GGCAGAGCUCAACACAGCGUGGCAGAUCGGCUGUGGCUAGACUGCC [A25G G27U U28C],0.08
19,GGCAGAGCUCAACACAGCGUGGCAGAUUGGCUGGGGCUAGACUGCC [A25G G27U U34G],0.16

row,Variant,self-cleavage
1,GGCAGAGCUCAACACAGCGUGGCAGAUUGGCUGUGGCCAGACUGCC [A25G G27U U38C],0.07
2,GGCAGAGCUCAACACAGCGUGGCAGAGUAACUGUGGCUAGACUGCU [A25G G29A G30A C46U],0.14
3,GGCAGAGCUCAACACAGCGUGGCAGAGUUGCUGUGACUAGUCUGUC [A25G G29U G36A A41U C45U],0.01
4,GGCAGAGCUCAACACAGCGUGGCAGAGUUGCUGUGGCUAAACAGCC [A25G G29U G40A U43A],0.04
5,GGCAGAGCUCAACACAGCGUGGCAGAGUGACUGUGGCUAGAUUGCU [A25G G30A C42U C46U],0.15
6,GGCAGAGCUCAACACAGCGUGGCAGAGUGACUGUGUCUAGACUGCU [A25G G30A G36U C46U],0.01
7,GGCAGAGCUCAACACAGCGUGGCAGAGUGCCUGUGGCUAGCCUGCC [A25G G30C A41C],0
8,GGCAGAGCUCAACACAGCGUGGCAGAGUGUAUGUGGCUAGACUGCC [A25G G30U C31A],0.04
9,GGCAGAGCUCAACACAGCGUGGCAGAGUGUCUGUGACUAGACUGCC [A25G G30U G36A],0.04
10,GGCAGAGCUCAACACAGCGUGGCAGAGUGGCUGUCGCUAGGCUGCC [A25G G35C A41G],0.1
11,GGCAGAGCUCAACACAGCGUGGCAGAGUGGCUGUCGCUAGACCGCC [A25G G35C U43C],0.02
12,GGCAGAGCUCAACACAGCGUGGCAGAGUGGCUGUUGCCAGACUGCC [A25G G35U U38C],0.04
13,GGCAGAGCUCAACACAGCGUGGCAGAGUGGCUGUGACUAGACUACC [A25G G36A G44A],0.18
14,GGCAGAGCUCAACACAGCGUGGCAGAGUGGCUGUGUCUAGAGUGCC [A25G G36U C42G],0.08
15,GGCAGAGCUCAACACAGCGUGGCAGAGUGGCUGUGUCCAGACUGCC [A25G G36U U38C],0.02
16,GGCAGAGCUCAACACAGCGUGGCAGAGUGGCUGUGGCUAAACUGCU [A25G G40A C46U],0.02
17,GGCAGAGCUCAACACAGCGUGGCAGAGUGGCUGUGGCUACAUUGCC [A25G G40C C42U],0.03
18,GGCAGAGCUCAACACAGCGUGGCAGAGCGGCUGUGGCUAAACUGCC [A25G U28C G40A],0.02
